{
  "source": "PubChem BioAssay AID624417",
  "about": "(National Center for Advancing Translational Sciences (NCATS), 2012)",
  "note": "Among all 410,000 compounds or so, about 6,400 (1.6%) were called active. The inconclusive results got no clear call from the source; some entries with a clear call stand among them for comparison. Calls follow the shape of the dose curve; as a rule, active = well fitted inhibition curve with a large enough effect; inconclusive = small, poorly fitted or top-dose-only effect; inactive = no such curve, though single readings can be large or run the other way. Potencies of inconclusive entries are left out as doubtful fits. Potency is read from the fitted curve at half-maximal effect; tags tell the direction and shape of the fitted curve.",
  "data": [
    {"target": "Glucagon-like peptide 1 receptor (Homo sapiens) (UniProt P43220)", "sequence (P43220 whole entry, looked up)": "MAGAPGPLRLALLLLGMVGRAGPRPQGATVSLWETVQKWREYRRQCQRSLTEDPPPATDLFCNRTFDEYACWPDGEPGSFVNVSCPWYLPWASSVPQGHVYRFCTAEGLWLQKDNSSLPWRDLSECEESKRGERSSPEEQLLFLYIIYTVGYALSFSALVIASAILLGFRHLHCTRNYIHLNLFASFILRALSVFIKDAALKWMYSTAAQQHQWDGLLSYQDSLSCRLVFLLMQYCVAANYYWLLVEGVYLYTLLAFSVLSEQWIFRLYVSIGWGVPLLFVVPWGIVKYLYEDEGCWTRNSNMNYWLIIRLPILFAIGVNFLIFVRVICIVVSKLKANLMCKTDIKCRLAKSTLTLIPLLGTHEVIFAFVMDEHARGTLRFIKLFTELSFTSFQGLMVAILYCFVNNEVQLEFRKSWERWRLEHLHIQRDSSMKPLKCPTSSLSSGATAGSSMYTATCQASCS", "assay": "qHTS of GLP-1 Receptor Inverse Agonists (Inhibition Mode); also: nearly all actives have a fitted effect of over 55% in size", "conditions": "HEK293 GLP-1R CRE-luciferase, luminescence, 24 h, GLP-1R form is constitutively active; series mostly up to 38.3 µM", "how_it_was_run": "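Luminescence readout: a drop in cAMP-driven luciferase signal flags inverse agonism at a constitutively active GLP-1R stably expressed in HEK293. Compound exposure lasted 24 hr at 37 deg C, 5% CO2.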", "values": [
      {"smiles": "O=Cc1c(-c2ccc(Cl)cc2)oc2ccc(O)cc12", "Potency": "inconclusive [inhibitor, single point]"},
      {"smiles": "Cc1cccc(C)c1NC(=S)N(CCN1CCCCCC1)Cc1ccco1", "Potency": "active: 10 µM"},
      {"smiles": "O=C(Nc1cscc1S(=O)(=O)c1ccccc1)c1ccccc1Cl", "Potency": "inconclusive [inhibitor, partial curve, poor fit]"},
      {"smiles": "Cc1ccc(NC(=O)COC(=O)CCc2c(C)nc3ncnn3c2C)cc1", "Potency": "inactive"},
      {"smiles": "O=S(=O)(Nc1ccc(C(F)(F)F)cc1)c1ccc2c(c1)OCCO2", "Potency": "inconclusive [inhibitor, single point]"},
      {"smiles": "COc1ccc(-c2ccc3c(c2)[C@@H]2C[C@H]4[C@@H](C(=O)N2CC3)[C@H](C)ON4C)cc1", "Potency": "inactive"},
      {"smiles": "O=[N+]([O-])c1ccc(Nc2cccc3c2[nH]c2c(-c4ccccc4)nccc23)c([N+](=O)[O-])c1", "Potency": "inconclusive [inhibitor, full curve]"},
      {"smiles": "COc1cccc(C2C=C(Nc3ccccc3)C(=O)N2c2ccccc2)c1", "note": "(centres undefined)", "Potency": "inconclusive [inhibitor, partial curve, poor fit]"},
      {"smiles": "CN(c1ccc(C(=O)Nc2ccccc2Sc2ccccc2)cc1)S(C)(=O)=O", "Potency": "inconclusive [inhibitor, single point]"},
      {"smiles": "COC(=O)[C@]12CCCCC=C1N(Cc1cccc3ccccc13)C(=O)[C@H](CC(=O)N1CCCCC1)C2", "Potency": "inconclusive [inhibitor, single point]"},
      {"smiles": "COc1cccc(NC(=O)CN(C)C(=O)COc2cc(C)ccc2Cl)c1", "Potency": "inconclusive [inhibitor, partial curve, poor fit]"},
      {"smiles": "CN(C)S(=O)(=O)c1cccc(NC(=O)CCCC2CCCCC2)c1", "Potency": "inconclusive [inhibitor, single point]"},
      {"smiles": "COc1ccc(N2C(=O)C(CN3CCN(C)CC3)C2c2ccccc2)cc1", "note": "(centres undefined)", "Potency": "inconclusive [inhibitor, partial curve]"},
      {"smiles": "CN(Cc1ccccc1)C(=O)c1cccc(NC(=O)Cc2cccc([N+](=O)[O-])c2)c1", "Potency": "inconclusive [inhibitor, single point]"},
      {"smiles": "CC(=O)c1cccc(NS(=O)(=O)c2ccc(-c3cnc(C4CC4)o3)cc2)c1", "Potency": "inconclusive [inhibitor, full curve, poor fit]"},
      {"smiles": "O=C(C[n+]1ccccc1)c1ccc(-c2ccccc2)cc1", "Potency": "inconclusive [inhibitor, single point]"},
      {"smiles": "CC(C)Oc1ccc(/C=N/NC(=O)C2CCCN2S(=O)(=O)c2ccc(Cl)cc2)cc1", "note": "(centres undefined)", "Potency": "inconclusive [inhibitor, full curve, poor fit]"},
      {"smiles": "Cc1n[nH]c(C)c1N=Nc1ccc(Br)cc1", "Potency": "inconclusive [inhibitor, partial curve, poor fit]"},
      {"smiles": "O=C(NN1C(=O)/C(=C/c2ccc(O)c(O)c2)SC1=S)c1ccccc1", "Potency": "inconclusive [inhibitor, single point]"},
      {"smiles": "O=C(C1CC1)N1N=C(c2ccc(Br)cc2)CC1(O)C(F)(F)F", "note": "(centres undefined)", "Potency": "inconclusive [inhibitor, single point]"},
      {"smiles": "CCOc1ccc(-c2cc(N)n(S(=O)(=O)c3ccc(OC)c(OC)c3)n2)cc1", "Potency": "inconclusive [inhibitor, single point]"},
      {"smiles": "CCN(CC)CC(=O)N1c2ccccc2CCc2ccc(NC(=O)c3cc(OC)c(OC)c(OC)c3)cc21", "Potency": "inconclusive [inhibitor, single point]"},
      {"smiles": "CC(C)c1ccc(NC(=O)c2cccn2-c2nnc(N3CCCCC3)s2)cc1", "Potency": "inconclusive [inhibitor, single point]"},
      {"smiles": "CCCCCOC(=O)c1ccc(N2C(=O)C3C4C=CC(C4)C3C2=O)cc1", "note": "(centres undefined)", "Potency": "inconclusive [inhibitor, single point]"},
      {"smiles": "O=C1c2[nH]nc(-c3ccccc3O)c2C(c2cccc(Cl)c2)N1Cc1ccco1", "note": "(centres undefined)", "Potency": "inconclusive [inhibitor, single point]"},
      {"smiles": "CCN(CC)c1ccc(NC(=O)c2cncc(Br)c2)cc1", "Potency": "inconclusive [inhibitor, partial curve, poor fit]"},
      {"smiles": "COc1ccccc1NC(=S)N1CCNC(=O)C1CC(=O)Nc1cccc(C)c1", "note": "(centres undefined)", "Potency": "inconclusive [inhibitor, single point]"},
      {"smiles": "COc1ccc(CNC(=O)c2coc(=O)c3ccccc23)cc1", "Potency": "inconclusive [inhibitor, partial curve, poor fit]"},
      {"smiles": "Cc1ccc(CS(=O)(=O)CCC(=O)NCc2ccccc2Cl)cc1", "Potency": "inactive"},
      {"smiles": "COc1ccc(C2=Nc3ccc(Br)cc3C(c3ccccc3)N2CC(=O)NN)cc1", "note": "(centres undefined)", "Potency": "inconclusive [inhibitor, partial curve, poor fit]"},
      {"smiles": "Cc1cccc(/C=N/NC(=O)c2ccccc2OCc2cccc(Br)c2)n1", "Potency": "active: 11.2 µM"},
      {"smiles": "COC(=O)c1ccc2nc(-c3ccc(C)cc3)c(Cc3ccsc3)n2c1", "Potency": "inconclusive [inhibitor, single point]"},
      {"smiles": "CSc1nc2c(c(-c3ccc(O)cc3)c1C#N)CCC2", "Potency": "inconclusive [inhibitor, single point]"},
      {"smiles": "CCN(CC)c1ccc(/C=N/NC(=O)c2nnn(-c3nonc3N)c2C(C)C)c(O)c1", "Potency": "inconclusive [inhibitor, full curve, poor fit]"},
      {"smiles": "O=C1c2ccccc2C(Nc2cccnc2)N1Cc1ccccc1", "note": "(centres undefined)", "Potency": "inactive"},
      {"smiles": "O=[N+]([O-])c1ccc(-c2n(-c3ccccn3)c3ccccc3[n+]2-c2ccccn2)cc1", "Potency": "inconclusive [inhibitor, partial curve, poor fit]"},
      {"smiles": "O=C(NCC1CCCO1)c1ccc(S(=O)(=O)N2CCC(c3nc4ccc(Cl)cc4[nH]3)CC2)cc1", "note": "(centres undefined)", "Potency": "inactive"},
      {"smiles": "CN1CCN(c2ccccc2NC(=O)c2ccc(-c3ccc(Br)cc3)o2)CC1", "Potency": "inconclusive [inhibitor, full curve, poor fit]"},
      {"smiles": "Cc1ccc(NC(=O)CC2Nc3cccc4cccc(c34)NC2=O)cc1", "note": "(centres undefined)", "Potency": "inconclusive [inhibitor, single point]"},
      {"smiles": "CCCCNC(=O)CSc1nc2ccccc2nc1Cc1ccc(Cl)cc1", "Potency": "inactive"},
      {"smiles": "COc1ccc(N(Cc2ccccc2)C(=O)c2nc(SC)ncc2Cl)cc1", "Potency": "active: 11.2 µM"},
      {"smiles": "CCc1ccc(NC(=O)C(=O)NCC2CCCN2S(=O)(=O)c2cccs2)cc1", "note": "(centres undefined)", "Potency": "inconclusive [inhibitor, partial curve, poor fit]"},
      {"smiles": "Cc1ccc(Sc2nnc(Cc3ccccc3)c3ccccc23)cc1", "Potency": "inactive"},
      {"smiles": "CC(NC(=O)c1cccc(OC2CCN(C3CCN(C)CC3)CC2)c1)c1ccccc1", "note": "(centres undefined)", "Potency": "inconclusive [inhibitor, partial curve, poor fit]"},
      {"smiles": "COc1ccc(C2C=C(C34CC5CC(CC(C5)C3)C4)NC(=S)N2)cc1OC", "note": "(centres undefined)", "Potency": "inconclusive [inhibitor, single point]"},
      {"smiles": "FC(F)(F)c1ccc(C2[C@H]3CN(Cc4cccnc4)[C@H](c4ccccc4)C34CC2(c2ccccc2)C4)cc1", "note": "(some centres undefined)", "Potency": "inconclusive [inhibitor, partial curve, poor fit]"},
      {"smiles": "O=C(Cn1nc(C(F)(F)F)c2c1CCC2)NCc1ccc(Cl)cc1", "Potency": "inconclusive [inhibitor, partial curve, poor fit]"},
      {"smiles": "COc1cccc(Cn2c(=O)n(-c3ccc(Br)cc3F)c(=O)c3sc4ccccc4c32)c1", "Potency": "inactive"},
      {"smiles": "CC(Sc1nnnn1C)C(=O)Nc1ccc(Oc2ccccc2)cc1", "note": "(centres undefined)", "Potency": "inconclusive [inhibitor, single point]"},
      {"smiles": "CC1CCCC(NC(=O)COC(=O)CCC(=O)c2ccc(F)cc2)C1C", "note": "(centres undefined)", "Potency": "inactive"},
      {"smiles": "CCOC(=O)c1ccccc1NC(=S)N1CCN(C2CCCCC2)CC1", "Potency": "inconclusive [inhibitor, single point]"},
      {"smiles": "Cc1nc(NCCc2ccc(S(N)(=O)=O)cc2)c2c(C)c(C)sc2n1", "Potency": "inconclusive [inhibitor, single point]"},
      {"smiles": "COc1cccc(/C=N/N2C(=O)CSC2=S)c1O", "Potency": "inactive"},
      {"smiles": "CCC(=O)Nc1sc2c(c1C#N)CCCCC2", "Potency": "inconclusive [inhibitor, partial curve, poor fit]"},
      {"smiles": "COC(=O)[C@]1(CC(C)C)N[C@H](c2ccc(-c3ccc(OC)cc3)cc2)[C@@H]2C(=O)N(C)C(=O)[C@@H]21", "Potency": "inconclusive [inhibitor, partial curve, poor fit]"},
      {"smiles": "COc1ccc(-c2noc(N3CCC(C(=O)Nc4ccc(C)c(F)c4)CC3)n2)cc1OC", "Potency": "inactive"},
      {"smiles": "O=c1c2c(nc3c(-c4ccc(Cl)cc4)c[nH]n13)CCCC2", "Potency": "inconclusive [inhibitor, full curve]"},
      {"smiles": "OC(c1ccc(F)cc1)c1nc(-c2cnc3ccccc3c2)cs1", "note": "(centres undefined)", "Potency": "inconclusive [inhibitor, single point]"},
      {"smiles": "Cc1ccc(-c2cc3ncc(C#N)c(N)n3n2)cc1", "Potency": "inactive"},
      {"smiles": "CCCCC/C=C/C1=CC(=O)C[C@H](c2ccc(OC)c(OC)c2)C1", "Potency": "inactive"},
      {"smiles": "COc1ccc(Cl)cc1NC(=O)CCCn1c(C)c2cnn(-c3ccccc3)c(=O)c2c1C", "Potency": "inconclusive [inhibitor, single point]"},
      {"smiles": "Cc1oc(-c2ccc(F)cc2F)nc1CN1CCN(C(=O)c2ccco2)CC1", "Potency": "inactive"},
      {"smiles": "CCCCCn1c(=O)c(C(=O)OCC)c(Cl)c2ccccc21", "Potency": "inconclusive [inhibitor, partial curve, poor fit]"},
      {"smiles": "O=C(NCCc1nc2ccccc2[nH]1)/C(=C/c1ccco1)NC(=O)c1ccccc1Br", "Potency": "inactive"}
    ]}
  ]
}
